Source: article PMC4336329 (PLoS ONE, 2015)
The whole screen tested about 310,000 compounds, of which about 14,000 (4.5%) showed an effect of 50% or more. The effect is printed as a negative number. Some of the results follow.

target: human ether-à-go-go-related gene (hERG) potassium channel (human, UniProt Q12809); assay: primary screen, population patch clamp on CHO cells stably expressing hERG
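Further: peak tail current of the secondary pulse compared with the same well before compound.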

human ether-à-go-go-related gene (hERG) potassium channel, sequence (Q12809 whole entry, looked up): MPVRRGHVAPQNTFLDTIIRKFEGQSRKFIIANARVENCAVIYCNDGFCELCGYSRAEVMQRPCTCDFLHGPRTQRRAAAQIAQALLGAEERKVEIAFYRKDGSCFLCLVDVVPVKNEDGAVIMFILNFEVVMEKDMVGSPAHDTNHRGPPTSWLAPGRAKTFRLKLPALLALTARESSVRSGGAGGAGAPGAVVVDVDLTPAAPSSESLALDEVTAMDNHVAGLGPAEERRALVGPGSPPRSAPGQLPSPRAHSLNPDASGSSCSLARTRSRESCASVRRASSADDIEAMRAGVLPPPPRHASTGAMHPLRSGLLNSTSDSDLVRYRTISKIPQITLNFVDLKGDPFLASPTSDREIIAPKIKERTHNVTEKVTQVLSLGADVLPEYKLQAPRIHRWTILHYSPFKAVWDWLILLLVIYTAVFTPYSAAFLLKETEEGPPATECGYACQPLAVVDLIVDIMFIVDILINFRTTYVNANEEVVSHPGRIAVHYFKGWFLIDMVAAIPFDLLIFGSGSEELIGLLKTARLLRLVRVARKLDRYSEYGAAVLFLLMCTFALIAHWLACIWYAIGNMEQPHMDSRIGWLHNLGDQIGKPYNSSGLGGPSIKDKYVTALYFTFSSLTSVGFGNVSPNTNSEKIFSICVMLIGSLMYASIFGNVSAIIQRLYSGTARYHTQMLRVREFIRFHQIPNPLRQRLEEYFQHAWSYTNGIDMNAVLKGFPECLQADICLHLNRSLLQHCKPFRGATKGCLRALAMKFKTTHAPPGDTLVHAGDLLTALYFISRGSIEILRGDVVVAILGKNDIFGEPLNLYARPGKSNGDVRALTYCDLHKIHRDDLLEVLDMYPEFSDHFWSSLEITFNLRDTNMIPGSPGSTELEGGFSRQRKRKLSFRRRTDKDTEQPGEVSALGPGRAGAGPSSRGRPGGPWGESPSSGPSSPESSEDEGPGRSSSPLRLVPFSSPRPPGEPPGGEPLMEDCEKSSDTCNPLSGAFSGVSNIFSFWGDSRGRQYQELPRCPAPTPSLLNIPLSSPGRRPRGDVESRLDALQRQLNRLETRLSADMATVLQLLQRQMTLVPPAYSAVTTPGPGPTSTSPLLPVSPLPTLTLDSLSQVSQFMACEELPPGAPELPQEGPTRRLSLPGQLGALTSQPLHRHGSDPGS

Row | Compound | hERG current change (%, negative = inhibition) at 10uM
1 | Cc1cccc(NC(=O)/C(C#N)=C/c2cccc([N+](=O)[O-])c2)n1 | 1.3%
2 | Cc1cc(C(C2C(=O)CC(C)(C)CC2=O)C2C(=O)CC(C)(C)CC2=O)cc(C)c1OC(F)F | -0.965%
3 | Cc1nnc2ccc(-c3ccc(NC(=O)Cc4cccs4)cc3)nn12 | -25.4%
4 | CCOC(=O)N1CCN(C(=O)COc2ccc(S(=O)(=O)NCc3ccccc3)cc2)CC1 | -28.2%
5 | CCOc1ccc(OCC)c(NC(=O)C2CCN(c3cnccn3)CC2)c1 | 4.38%
6 | O=C(c1cc(C2CC2)nn1-c1ccccc1)N1CCN(Cc2c(F)cccc2Cl)CC1 | -36.6%
7 | CCn1c(SCC(=O)NC2CCCC2)nnc1-c1cccnc1 | 5.55%
8 | CCCn1c2c(c(O)c(C(=O)Nc3ncccc3C)c1=O)CCCC2 | -26.7%
9 | O=C(O)CC(c1ccccc1F)N1Cc2ccccc2C1=O (centres unmarked) | 10.7%
10 | O=C(NNC(=S)NC(=O)c1cccs1)c1ccc(NC(=O)c2ccccc2)cc1 | 13.7%
11 | O=C(Cn1ncc2c([nH]c3ccccc32)c1=O)N1CCN(c2ccccc2F)CC1 | 1.65%
12 | COc1cc([N+](=O)[O-])ccc1NC(=O)Cc1ccccc1 | 16.3%
13 | CCCC(=O)Nc1nnc(S(=O)(=O)N(CC(C)C)c2ccccc2)s1 | 30.8%
14 | COc1ccc2nc(SCC(=O)Nc3ccccc3)[nH]c2c1 | -3.45%
15 | O=C(N/C=C/c1ccco1)NCc1ccccc1 | 16.6%
16 | COc1cc(/C=C(/C#N)C(=O)c2c(C)[nH]c3ccccc23)ccc1OCC#N | -2.68%
17 | COCCN(C(=O)C1=COCCO1)c1c(N)n(Cc2ccccc2)c(=O)[nH]c1=O | 12.1%
18 | CN1CCN(CC(=O)N/N=C/c2ccc(F)c(F)c2)CC1 | 8.23%
19 | Cc1ccc2nc(N(CCN(C)C)C(=O)c3cc(Cl)sc3Cl)sc2c1.Cl | 7.55%
20 | CC1(C(=O)NCCCN2CCOCC2)Oc2cccnc2NC1=O (centres unmarked) | 13.2%
21 | O=C(c1cccs1)n1nc(-c2ccco2)nc1SCc1ccccc1 | 5.76%
22 | CCc1ccc(NC(=O)CNC(=O)Cn2ccc3ccccc3c2=O)cc1 | 19.8%
23 | CC(=O)c1ccc(OCC(C)C)c(CC(C(N)=O)C(N)=O)c1 | 19.2%

Row | Compound | hERG current change (%, negative = inhibition) at 10uM
24 | CNP1(NC)=Nc2nn(-c3ccccc3)c(N)c2C(c2ccccc2)=N1 | 5.52%
25 | CC1=CC(C)(C)NC(=O)N1c1ccc(C)cc1 | 4.5%
26 | COc1ccccc1CC1S/C(=N/N=C/c2ccco2)NC1=O (centres unmarked) | 17%
27 | O=C(c1ccccn1)c1conc1C(=O)c1ccc(Br)cc1 | -27.2%
28 | CCCCN(CCCC)C(=O)c1sc2nc(N3CCOCC3)c3c(c2c1N)CCCC3 | 9%
29 | C/C(=N\O)c1ccccc1C(=O)O | 7.25%
30 | COc1cccc(-c2nc(CS(=O)(=O)CC(=O)NCc3ccc(Cl)cc3)c(C)o2)c1 | 2.76%
31 | Cc1cc(-c2ccccc2C(=O)NCc2ccccc2)on1 | 5.04%
32 | O=C(Nc1ccccc1F)Nc1cccnc1Cl | 9.22%
33 | CCn1c(C(C)C)n[nH]c1=S | 11.5%
34 | CCCC(=O)OCC(=O)NC1CCCc2ccccc21 (centres unmarked) | 19.7%
35 | COC(=O)C1C(C(=O)OC)C1(c1ccccc1)c1ccccc1 (centres unmarked) | 16.2%
36 | Cn1c(SCC(=O)Nc2nc3ccccc3s2)nnc1-c1ccccc1 | 10.3%
37 | O=C(CSc1ccc(-c2cccs2)nn1)N1CCCCC1 | -4.77%
38 | COCCCN1C(=O)c2ccc(C(=O)N3CCN(c4ccc(OC)cc4)CC3)cc2C1=O | -10.6%
39 | CCc1cccc(NC(=O)CCc2c(C)nn(-c3ccc(N4CCOCC4)nn3)c2C)c1 | -51.4%
40 | O=Cc1cccn1-c1nccc(-c2ccco2)n1 | -17.7%
41 | CC(C)CCNC(=O)NC(=O)COC(=O)CCN=C1NS(=O)(=O)c2ccccc21 | 12.2%
42 | O=C1CSC(c2cn(-c3ccccc3)nc2-c2cc3ccccc3oc2=O)N1Cc1ccccc1 (centres unmarked) | 5.85%
43 | COC(=O)C1=C(c2ccc(F)cc2OCc2ccccc2)C[C@@H]2CC[C@H]1N2C(=O)NCc1ccc(N(C)C)cc1 | 5.5%
44 | Fc1cccc(CCN2CCNC[C@@H]2Cc2ccccc2)c1 | -4.41%
45 | CCc1cc2c(=O)[nH]cnc2s1 | -3.48%
46 | O=c1[nH]nc(CSCc2ccccc2Cl)[nH]1 | 6.6%

Row | Compound | hERG current change (%, negative = inhibition) at 10uM
47 | COc1ccccc1N1CC(C(=O)Nc2cc(C(F)(F)F)ccc2N2CCCC2)CC1=O (centres unmarked) | -15.3%
48 | COc1cc2cc(CN(C(=O)NC3CCCCC3)C3CCCC3)c(=O)[nH]c2cc1OC | -8.99%
49 | Cc1csc(Nc2ccc(Cl)cc2)n1 | 4.47%
50 | N#Cc1nc(COc2ccccc2)oc1N1CCCC1 | -31.1%
51 | COc1cccc(-c2onc3ccc(C(=O)/C=C/N(C)C)cc23)c1 | -31.4%
52 | CCOc1ccc(/C=C2\CCC(C3CCCC3)C2=O)cc1 (centres unmarked) | 10.6%
53 | C/C(=N\NC(=O)CN(c1ccc(Oc2ccccc2)cc1)S(C)(=O)=O)C(C)(C)C | 7.07%
54 | Cn1cccc1CC(=O)NNC(=S)NC(=O)c1ccccc1Br | 13.1%
55 | CC(=O)Nc1ccc(Nc2c3c4c(cccc4n(C)c2=O)C(=O)c2ccccc2-3)cc1 | 7.17%
56 | COc1cc(/C=N/NC(=S)Nc2cccc(C(=O)O)c2)cc(OC)c1OC | 43%
57 | CCc1noc(C)c1C(=O)Nc1ccc(-c2nnc3n2CCCCC3)cc1 | 14.1%
58 | Cn1c(CNC(=O)C2CCCCC2)cc2cc(Cl)ccc21 | 9.29%
59 | O=C(c1ccc(Cl)cc1)N1CCN(C(=O)c2ccco2)CC1 | -21%
60 | O=C(c1ccccc1F)N(Cc1ccccc1)Cc1ccccc1 | 2.16%
61 | COC(=O)c1oc2ccc(Br)cc2c1NC(=O)c1ccccc1 | 11.5%
62 | NS(=O)(=O)c1ccc(NC(=O)c2ccc3nccnc3c2)cc1 | 0.796%
63 | COC(=O)c1c(NC(=O)CCC(=O)O)sc(Cc2ccccc2)c1C | -7.29%
64 | CC1CCCN(S(=O)(=O)c2ccc(C(=O)Nc3nnc(-c4ccccc4Cl)o3)cc2)C1 (centres unmarked) | 9.83%
65 | COc1ccc(-n2nc3c(c2NC(=O)c2ccc4c(c2)OCO4)CS(=O)(=O)C3)cc1 | -7.66%
66 | O=C(NC12CC3CC(CC(C3)C1)C2)c1ccccc1O | 7.43%
67 | Cl.O=C(CN1CCCC1)N1c2ccccc2Sc2ccc(C(F)(F)F)cc21 | 1.06%
68 | CCn1c(SCc2nc(-c3ccccc3)no2)nnc1-c1cccs1 | -61.2%
69 | CCN1C(=O)[C@H]2[C@@H](c3ccc(-c4cccc(Cl)c4)c(OC)c3)N[C@@](CC(C)C)(C(=O)OC)[C@H]2C1=O.O=C(O)C(F)(F)F | 15.2%

Row | Compound | hERG current change (%, negative = inhibition) at 10uM
70 | COc1ccc(N2CCN(C(=O)c3ccc(C)c(NC(=O)c4ccco4)c3)CC2)cc1 | -74.8%
71 | C/C(N)=C(/C#N)C(=O)COC(=O)CCC1CCCC1 | -4.73%
72 | Cc1cc(=O)[nH]c2c1cnn2C(C)c1ccccc1 (centres unmarked) | 20.8%
73 | O=C(Nc1nnc(S(=O)(=O)N2CCOCC2)s1)c1ccccc1 | 5.83%
74 | Cc1cccc(C)c1OCc1cc(C(=O)N2CCN(C3CCCC3)CC2)no1 | -67.9%
75 | CN1CCc2c(sc3c2C(=O)NC(c2cn(Cc4ccccc4)c4ccccc24)N3)C1 (centres unmarked) | -19.3%
76 | Cc1cc(C)n(-c2nnc(C)n2NC(=O)c2cccc(Cl)c2)n1 | 11.1%
77 | COc1ccc(-c2nnnn2C(C)C)cc1 | -0.893%
78 | Cn1nnnc1Sc1ncnc2scc(-c3ccc(Cl)cc3)c12 | -17.3%
79 | COc1ccc(CC(=O)Nc2ccc3c(C)cc(=O)oc3c2)cc1OC | 7.85%
80 | Cc1ccc(NC(=O)CSc2nnc(-c3ccncc3)n2C)cc1C | -13.9%
81 | CCN(CC)C(=O)N1CCN(c2c([N+](=O)[O-])c(=O)oc3ccccc23)CC1 | -25.7%
82 | Fc1ccc(N/N=C(/c2ccccc2)c2ccccn2)cc1 | -12.5%
83 | COc1ccc(CC(=O)OCC(=O)NCc2ccccc2Cl)cc1 | 3.2%
84 | O=C(Nc1nc(-c2ccc(Cl)cc2Cl)cs1)c1ccc(OCC2CCCO2)cc1 (centres unmarked) | 6.82%
85 | COc1ccc(CNC(=O)COC(=O)c2cc(-c3cccs3)nc3ccccc23)cc1OC | 13.7%
86 | CCN1CCN(C(=O)c2ccc(CS(=O)(=O)Cc3ccccc3C)o2)CC1 | 13.3%
87 | COc1cc(C(=O)NC(=S)Nc2ccc3oc(=O)ccc3c2)cc(OC)c1OC | 9.8%
88 | CC(C)Cn1nc(C(=O)OCC(=O)NCC(F)(F)F)c2ccccc2c1=O | -78.2%
89 | Cc1nc2c(cc1N)nc(C)n2Cc1ccccc1 | 7.23%
